From patent US20050250127A1, “Methods for identifying modulators of MDA-7 mediated apoptosis” (priority 2002, published 2005)

Key:
[1] = tested on: GADD family of genes (GADD153, GADD34, GADD45alpha, GADD45gamma) in FO-1 cells; assay: Northern blot of GADD family mRNA in FO-1 cells; format: cell-based, human
Experimental: Total RNA was extracted and Northern analysis was performed using the indicated cDNA probes as described in Section 6. […] C.
RNA Isolation and Northern Blot Analysis. Total RNA was extracted from the cells using Qiagen RNeasy mini kit (Qiagen) according to the manufacturer's protocol and Northern blotting was performed as described in Su et al., 1997, Proc. Natl. Acad. Sci. USA. 94, 9125-9130. The cDNA probes used were full length human GADD153, full length human GADD45-alpha, beta and gamma, a 500-bp fragment from human GADD34 and full-length human GAPDH.

[2] = tested on: FO-1 cells; assay: Dose-response studies of SB203580 in FO-1 cells

## C[S+]([O-])c1ccc(-c2nc(-c3ccncc3)c(-c3ccc(F)cc3)[nH]2)cc1 (stereo not drawn) [SB203580]
[1]; Ad.mda-7 100 pfu/cell, days 2 and 3
  Ad.mda-7-mediated induction of GADD family genes (mRNA): significantly inhibited
[1]; SB203580 alone
  basal expression of the GADD family of genes: did not affect the basal expression
[2]
  most effective concentration, without inducing toxicity: 1 µM
